Reference: PMC6906297
Results are given in words; binding and its absence hold for the method and conditions named. In cells and extracts the contact can be indirect. Some entries that bind do so weakly or less than the wild type. Where a sequence is shown, tags or fusion partners need not be part of it.

Tests used:
[1] = molecular target: T1, RNF125, tagged, transfected (UniProt Q96EQ8); experiment: co-IP; HEK293T cells (2 x 10^6) transfected with the indicated plasmids for 24 h; lysate with monoclonal antibody or control mouse IgG and protein G agarose, 4 °C, 2 h; washed with lysis buffer containing 0.5 M NaCl; western blot
T1 sequence: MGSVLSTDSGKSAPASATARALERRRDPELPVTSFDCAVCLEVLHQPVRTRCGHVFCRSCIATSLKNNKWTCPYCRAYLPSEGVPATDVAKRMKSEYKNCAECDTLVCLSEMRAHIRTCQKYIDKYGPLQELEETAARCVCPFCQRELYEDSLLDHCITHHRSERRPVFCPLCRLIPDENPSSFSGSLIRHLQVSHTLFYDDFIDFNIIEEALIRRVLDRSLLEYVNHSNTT

[2] = molecular target: T2, Retinoic acid-inducible gene I (RIG-I), tagged, transfected (UniProt O95786); experiment: as above
T2 sequence: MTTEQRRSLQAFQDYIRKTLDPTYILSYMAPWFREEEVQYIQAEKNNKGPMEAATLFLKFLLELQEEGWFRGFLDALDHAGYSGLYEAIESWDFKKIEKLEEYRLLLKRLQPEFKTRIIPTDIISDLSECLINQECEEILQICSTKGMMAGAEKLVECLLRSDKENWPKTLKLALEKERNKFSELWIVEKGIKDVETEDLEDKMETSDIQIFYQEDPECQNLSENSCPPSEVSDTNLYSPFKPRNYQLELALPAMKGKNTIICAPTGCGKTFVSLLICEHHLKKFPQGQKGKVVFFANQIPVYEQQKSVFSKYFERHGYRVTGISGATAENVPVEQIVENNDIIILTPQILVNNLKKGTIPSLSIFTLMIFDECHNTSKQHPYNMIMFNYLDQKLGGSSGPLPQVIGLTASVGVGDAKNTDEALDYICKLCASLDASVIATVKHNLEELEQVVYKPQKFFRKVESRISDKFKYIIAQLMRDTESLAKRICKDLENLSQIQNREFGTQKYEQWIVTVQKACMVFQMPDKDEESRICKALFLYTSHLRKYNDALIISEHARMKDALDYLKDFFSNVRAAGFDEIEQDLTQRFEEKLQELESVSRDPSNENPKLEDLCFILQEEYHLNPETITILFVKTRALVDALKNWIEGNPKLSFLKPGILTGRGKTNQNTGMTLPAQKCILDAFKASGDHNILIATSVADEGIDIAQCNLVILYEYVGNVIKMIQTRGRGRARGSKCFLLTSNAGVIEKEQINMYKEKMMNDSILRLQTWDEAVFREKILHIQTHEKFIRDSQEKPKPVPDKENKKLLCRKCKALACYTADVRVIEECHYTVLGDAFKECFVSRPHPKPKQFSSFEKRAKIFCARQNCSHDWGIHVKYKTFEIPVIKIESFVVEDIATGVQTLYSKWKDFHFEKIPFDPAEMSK

B1: RNF125, tagged, transfected (enzyme, UniProt Q96EQ8 1-232)
chain: T1 sequence
B1 was tested, and the binding [1] was “binds” and the binding [2] was “binds”.
